First the molecules themselves.
B1: SIX2, Q9NPC8 (protein)
chain: MSMLPTFGFTQEQVACVCEVLQQGGNIERLGRFLWSLPACEHLHKNESVLKAKAVVAFHRGNFRELYKILESHQFSPHNHAKLQQLWLKAHYIEAEKLRGRPLGAVGKYRVRRKFPLPRSIWDGEETSYCFKEKSRSVLREWYAHNPYPSPREKRELAEATGLTTTQVSNWFKNRRQRDRAAEAKERENNENSNSNSHNPLNGSGKSVLGSSEDEKTPSGTPDHSSSSPALLLSPPPPGLPSLHSLGHPPGPSAVPVPVPGGGGADPLQHHHGLQDSILNPMSANLVDLGS
B2: ZNF493, Q6ZR52 (protein)
chain: MNECNVHKEGYNELNQYLTTTQSKIFQCDKYVKVFHKLLNSNRHNTKHTGKKPFKCKKCGKSFCMLLHLCQHKRIHIRENSYRCEECGKAFIWFSTLTRHRRVHTGEKSYKYECGKSFNQDSNLTTHKRIHTGQKPYKCEECGTSFYQFSYLTRHKLIHTREKPYKCEQYGKTFNQSSTLTGHKIIHNGEKPYKCEECGKAFSIFSTPTKHKIIHTEEKSHRCEEYCKAYKESSHLTTHKRIHTGEKPYKCEECGKAFSIFSTLTKHKIIHTEEKSHRCEECGKAYKESSHLTTHKRIHTGEKPYKCEECGKTFSVFSILTKHKIIHTEEKPYKCEECGKAFKRSSTLTKHRIIHTEEKPYKCEECGKAFNQSSTLSIHKIIHTGEKPYKCEECGKAFKRSSTLTIHKMIHTGEKPYKCEECGKAFNRSSHLTTHKRIHTGHKPYKCKECGKSFSVFSTLTKHKIIHTDKKPYKCEECGKAFNRSSILSIHKKIHTGEKPYKCEECGKAFKRSSHLAGHKQIHSVQKPYKCEECGKAFSIFSTLTKHKIIHTEEKPYKCEKCGKTFYRFSNLNTHKIIHTGEKPCKCEECGKAFNHSSNLIKHKLIHTGDKPYKCEACGKAFRRSSHLSRHKIIHIGIHTEETVQK
B3: SIM1, P81133 (protein)
chain: MKEKSKNAARTRREKENSEFYELAKLLPLPSAITSQLDKASIIRLTTSYLKMRVVFPEGLGEAWGHSSRTSPLDNVGRELGSHLLQTLDGFIFVVAPDGKIMYISETASVHLGLSQVELTGNSIYEYIHPADHDEMTAVLTAHQPYHSHFVQEYEIERSFFLRMKCVLAKRNAGLTCGGYKVIHCSGYLKIRQYSLDMSPFDGCYQNVGLVAVGHSLPPSAVTEIKLHSNMFMFRASLDMKLIFLDSRVAELTGYEPQDLIEKTLYHHVHGCDTFHLRCAHHLLLVKGQVTTKYYRFLAKHGGWVWVQSYATIVHNSRSSRPHCIVSVNYVLTDTEYKGLQLSLDQISASKPAFSYTSSSTPTMTDNRKGAKSRLSSSKSKSRTSPYPQYSGFHTERSESDHDSQWGGSPLTDTASPQLLDPADRPGSQHDASCAYRQFSDRSSLCYGFALDHSRLVEERHFHTQACEGGRCEAGRYFLGTPQAGREPWWGSRAALPLTKASPESREAYENSMPHIASVHRIHGRGHWDEDSVVSSPDPGSASESGDRYRTEQYQSSPHEPSKIETLIRATQQMIKEEENRLQLRKAPSDQLASINGAGKKHSLCFANYQQPPPTGEVCHGSALANTSPCDHIQQREGKMLSPHENDYDNSPTALSRISSPNSDRISKSSLILAKDYLHSDISPHQTAGDHPTVSPNCFGSHRQYFDKHAYTLTGYALEHLYDSETIRNYSLGCNGSHFDVTSHLRMQPDPAQGHKGTSVIITNGS
B4: MKL1, Q969V6 (protein)
chain: MPPLKSPAAFHEQRRSLERARTEDYLKRKIRSRPERSELVRMHILEETSAEPSLQAKQLKLKRARLADDLNEKIAQRPGPMELVEKNILPVESSLKEAIIVGQVNYPKVADSSSFDEDSSDALSPEQPASHESQGSVPSPLEARVSEPLLSATSASPTQVVSQLPMGRDSREMLFLAEQPPLPPPPLLPPSLTNGTTIPTAKSTPTLIKQSQPKSASEKSQRSKKAKELKPKVKKLKYHQYIPPDQKQDRGAPPMDSSYAKILQQQQLFLQLQILNQQQQQHHNYQAILPAPPKSAGEALGSSGTPPVRSLSTTNSSSSSGAPGPCGLARQNSTSLTGKPGALPANLDDMKVAELKQELKLRSLPVSGTKTELIERLRAYQDQISPVPGAPKAPAATSILHKAGEVVVAFPAARLSTGPALVAAGLAPAEVVVATVASSGVVKFGSTGSTPPVSPTPSERSLLSTGDENSTPGDTFGEMVTSPLTQLTLQASPLQILVKEEGPRAGSCCLSPGGRAELEGRDKDQMLQEKDKQIEALTRMLRQKQQLVERLKLQLEQEKRAQQPAPAPAPLGTPVKQENSFSSCQLSQQPLGPAHPFNPSLAAPATNHIDPCAVAPGPPSVVVKQEALQPEPEPVPAPQLLLGPQGPSLIKGVAPPTLITDSTGTHLVLTVTNKNADSPGLSSGSPQQPSSQPGSPAPAPSAQMDLEHPLQPLFGTPTSLLKKEPPGYEEAMSQQPKQQENGSSSQQMDDLFDILIQSGEISADFKEPPSLPGKEKPSPKTVCGSPLAAQPSPSAELPQAAPPPPGSPSLPGRLEDFLESSTGLPLLTSGHDGPEPLSLIDDLHSQMLSSTAILDHPPSPMDTSELHFVPEPSSTMGLDLADGHLDSMDWLELSSGGPVLSLAPLSTTAPSLFSTDFLDGHDLQLHWDSCL
B5: FOXD3, Q9UJU5 (protein)
chain: MTLSGGGSASDMSGQTVLTAEDVDIDVVGEGDDGLEEKDSDAGCDSPAGPPELRLDEADEVPPAAPHHGQPQPPHQQPLTLPKEAAGAGAGPGGDVGAPEADGCKGGVGGEEGGASGGGPGAGSGSAGGLAPSKPKNSLVKPPYSYIALITMAILQSPQKKLTLSGICEFISNRFPYYREKFPAWQNSIRHNLSLNDCFVKIPREPGNPGKGNYWTLDPQSEDMFDNGSFLRRRKRFKRHQQEHLREQTALMMQSFGAYSLAAAAGAAGPYGRPYGLHPAAAAGAYSHPAAAAAAAAAAALQYPYALPPVAPVLPPAVPLLPSGELGRKAAAFGSQLGPGLQLQLNSLGAAAAAAGTAGAAGTTASLIKSEPSARPSFSIENIIGGGPAAPGGSAVGAGVAGGTGGSGGGSTAQSFLRPPGTVQSAALMATHQPLSLSRTTATIAPILSVPLSGQFLQPAASAAAAAAAAAQAKWPAQ

The list shows a part of the results. Binding of human transcription factors and regulators to the viral nucleoprotein by AlphaScreen, crude cell-free proteins, amounts not normalised, one pass. Fold of the Venus control; higher = more signal. No active / inactive call. Single-pass screen; sequences are the whole Swiss-Prot entries looked up by name.

This test concerns the target nucleoprotein N of Crimean-Congo hemorrhagic fever virus. Briefly: AlphaScreen luminescence signal relative to Venus negative control (fold); higher = stronger binding to CCHFV N. As for the experimental part:
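AlphaScreen binding of cell-free made, FLAG-GST-tagged human transcription factors and regulators (crude translation products) to biotinylated N protein; signal as fold of the FLAG-GST-Venus control. One pass.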
(In Alpha technology, singlet oxygen from a donor bead excites a nearby acceptor bead.)
Take B1: the AlphaScreen luminescence signal turned out to be 2.42.
Next, B2: 6.05; B3: 2.7.
The molecule B4 gave an AlphaScreen luminescence signal of 2.37.
Then B5, with 1.02.

The values above are taken from the supplement of paper PMC12423691.
